Among the data in the RNAGym collection of RNA variant scans (doi:10.1093/nar/gkz1192) are self-cleavage values, retold here.

The source gives no read counts; variants with many changes may rest on few reads.

To fix the notation:
B1: CPEB3 Ribozyme (parent)
chain: UAACAGGGGGCCACAGCAGAAGCGUUCACGUCGCAGCCCCUGUCAGAUUCUGGUGAAUCUGCGAAUUCUGCUGUAUAUCUC

In the data set the parent is B1. The data set is described as follows: self-cleavage, relative activity (ratio to wild type); higher = more cleavage; in vitro, sequencing. The procedure, abridged: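 Relative activity compares each variant's cleaved/total read fraction with that of the unmutated ribozyme. To get these fractions, barcoded CPEB3 ribozyme libraries from rounds of error-prone PCR were transcribed with T7 RNA polymerase for 5 hours at 37°C and then given 15 min of DNase I treatment before EDTA was added. The RNAs were reverse transcribed with template switching and sequenced on Illumina, and DNA sequencing linked barcodes to variants. A minimum of 5 reads applied, and three batches were averaged.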
For the variant A56U A64U U67C U69C, the self-cleavage turned out to be 0.24.

For U51A U60A A64G, the self-cleavage was 0.72.

As for U49C U60C U69G U72C U80C, the self-cleavage came out at 0.13.

Take G55U U69G U78C: the self-cleavage worked out at 0.68.

In the case of U51C A64U U72C, the self-cleavage came out at 0.57.

As for U54C C68U U74A, the self-cleavage worked out at 0.98.

Take U54A G61A U67A C68A: the self-cleavage was 0.42.

Regarding U49C U67C C71U, the self-cleavage turned out to be 0.11.

For the variant A56G U66C G70A U72A, the self-cleavage amounted to 0.32.

For G52U G73A U76C, the self-cleavage was 1.29.

U54C A57C U74A: the self-cleavage turned out to be 0.44.

For the variant U54A A64G U69C, the self-cleavage is 0.65.

Consider U54G U60C U69A U72C, for which the self-cleavage came to 0.19.

Take U49C U54C C68A U72C: the self-cleavage came out at 0.1.

As to A56G A64G U76A, the self-cleavage came out at 0.94.

A56G A64G U76C: the self-cleavage was determined as 0.94.

Regarding C50U U60C U76C, the self-cleavage amounted to 0.28.

As for U54C A64G A75C A77U, the self-cleavage came to 1.15.

Turning to G53U U54C U72C, the self-cleavage came out at 1.09.

On to U51C A64U G70C, for which the self-cleavage came to 0.09.

As to U51A U66C U69C, the self-cleavage came to 0.42.

Regarding A56G U60C U78C, the self-cleavage was found to be 0.42.

As for U51A U60C A77G, the self-cleavage came to 0.38.

Regarding U51C U54A A64U C68U, the self-cleavage stood at 0.35.

U54C A65G U67C C81A: the self-cleavage was 0.23.

For U49C U54C U66C U80A, the self-cleavage turned out to be 0.17.

Turning to U51C A65U U66C, the self-cleavage amounted to 0.21.

Turning to C50A U60C U69A, the self-cleavage came to 0.15.

Turning to U54C U60C U76C, the self-cleavage was found to be 0.57.

For the variant C50A U54C U60A C68U, the self-cleavage was determined as 0.15.

As to U49C U60C C62U A64G A65G U69A U72C, the self-cleavage is 0.08.

Turning to U49C U69C U78A, the self-cleavage was 0.35.

Regarding U51C U54A U58C U74C, the self-cleavage is 0.32.

With G52A A65G U80C, the self-cleavage is 0.67.

With U51A U54C U60C U72A U78C, the self-cleavage stood at 0.63.

For U51C A65G U69C A77G, the self-cleavage amounted to 0.55.

Take G52U A56G U78C: the self-cleavage stood at 1.22.

A56U U58C U66C: the self-cleavage was 0.46.

G55U U76C A77G: the self-cleavage came out at 1.03.

Take U49C U51C U76C: the self-cleavage is 0.38.

In the case of G52U U60A U78C, the self-cleavage was 0.73.

As to A56G A64G U69A, the self-cleavage is 0.41.

Take G55U A64G U66C: the self-cleavage is 0.19.

U51C A57G U78A U80C: the self-cleavage is 0.93.

For U54C U58C U69A, the self-cleavage was 0.23.

For U51A A57G U72A U80C, the self-cleavage was determined as 0.74.

A56G U58A U66C: the self-cleavage stood at 0.17.

Turning to U49C U69A U72C, the self-cleavage was found to be 0.39.

With U54A A65C C68A, the self-cleavage came out at 0.4.

As for U51A A56G U72G, the self-cleavage came to 0.44.

With U51C A64U A77G, the self-cleavage came out at 0.38.

Take G55U U74C A75G: the self-cleavage is 1.07.

In the case of U51A C68U U72C, the self-cleavage worked out at 0.88.

Take U51A C68U U72G: the self-cleavage stood at 0.94.

For A56G U60C U66A, the self-cleavage was determined as 0.17.

Consider U51C U74C U80C, for which the self-cleavage is 1.26.

In the case of U49C U69C A77U, the self-cleavage came out at 0.37.

A56U U60A C62U A64G: the self-cleavage was 0.12.

Take U51C U67C C68G: the self-cleavage was 0.54.

As to U54C G63U U80A, the self-cleavage is 0.71.

With G52C A56G U80A, the self-cleavage was determined as 1.21.

Consider A56U A65G U72A U74A U78C, for which the self-cleavage was determined as 0.28.

On to U54G U72A U78G, for which the self-cleavage is 1.01.

As to U54C G61A U67A, the self-cleavage was found to be 0.24.

With A56G U69A U78C, the self-cleavage worked out at 0.43.

Regarding U51A U74A U80A, the self-cleavage was determined as 1.27.

A56U C59A U74C: the self-cleavage worked out at 0.25.

Regarding U54C A64G U80A, the self-cleavage was found to be 1.14.

Regarding G53A U76A A77G, the self-cleavage was 1.16.

As to U49C U78A C79U, the self-cleavage turned out to be 0.25.

As to A56G A64G U72A, the self-cleavage is 0.47.

For U51A U58C U60C, the self-cleavage stood at 0.31.

A56C A57G U60C: the self-cleavage is 0.19.

With A56U U74C A75C, the self-cleavage is 0.96.

For U51C A56G A65U U72C, the self-cleavage was 0.47.

For the variant U51C A56U U78C, the self-cleavage turned out to be 0.45.

In the case of G52U U54G U78C, the self-cleavage was determined as 1.06.

In the case of U51C U58C U80A, the self-cleavage came to 0.36.

In the case of G52U U54C U69G, the self-cleavage turned out to be 0.97.

For the variant U51C U54C C81U, the self-cleavage was 1.17.

In the case of G55U G73C A77G, the self-cleavage is 1.19.

With U49C U58C U66A U67C, the self-cleavage was found to be 0.11.

Take A56U U60C U76C: the self-cleavage stood at 0.37.

For A56U U60C U76A, the self-cleavage came to 0.15.

With U54A C71A U78C, the self-cleavage worked out at 0.32.

For G52U U72C G73A U78C, the self-cleavage worked out at 1.24.

A56C U67A C71G: the self-cleavage is 0.13.

As for U49G U51A U54C A57U U72C, the self-cleavage was determined as 0.17.

Turning to A56U U58C U69C U78A, the self-cleavage turned out to be 0.13.

U54G U66C U78C: the self-cleavage is 0.21.

For the variant A56U C62U U69A, the self-cleavage was determined as 0.34.

As to U49C U58C U74A, the self-cleavage worked out at 0.11.

For the variant U51C U54G A65G, the self-cleavage was found to be 0.15.

With U54C C71A U72C, the self-cleavage is 0.27.

In the case of A56G U66A U67C, the self-cleavage was 0.16.

Regarding A56G A57G A64G U80A, the self-cleavage stood at 0.35.

Consider U54G A57G U66A, for which the self-cleavage amounted to 0.19.

As for U54A U60C U67C, the self-cleavage was found to be 0.64.

U51C G53A A75G: the self-cleavage was 0.95.

U51A U54C A57U: the self-cleavage was determined as 0.52.

Turning to U51C A56G A65C, the self-cleavage came to 0.2.

As to U54C U60A U69C, the self-cleavage is 0.25.

In the case of U51C A56G G70A U80C, the self-cleavage is 0.66.

In the case of U54C U66C U78C, the self-cleavage came to 0.21.

For the variant A56G U67C U78A, the self-cleavage was found to be 0.17.

For the variant A56U U67C G70C, the self-cleavage amounted to 0.22.

Regarding G52A U54A G55C, the self-cleavage is 1.12.

For the variant U51C A57G A65U, the self-cleavage worked out at 0.25.

For U51C U66A U67A U80C, the self-cleavage is 0.55.

Regarding A56G G63A U69C, the self-cleavage is 0.37.

For G52U A64G U74C, the self-cleavage is 1.13.

Regarding U51G A56G U58C, the self-cleavage was found to be 0.17.

Take U51A U60A U80C: the self-cleavage was 0.87.

G52A U69A U78C: the self-cleavage is 0.78.

For U49C U72C U74A, the self-cleavage was determined as 0.64.

On to U51A U60C U76G U80C, for which the self-cleavage worked out at 0.33.

U51A U60C C62G U72C A75G: the self-cleavage worked out at 0.48.

In the case of U54A C62A U67C U72A, the self-cleavage came to 0.82.

Turning to U51G U54A G63A, the self-cleavage amounted to 0.59.

Consider G53C A57G C68U, for which the self-cleavage was determined as 0.87.

For the variant U49C U60C U78C, the self-cleavage was 0.28.

Consider U54C A56U U67C, for which the self-cleavage is 0.22.

On to A56G A65U U66C U67A U80A, for which the self-cleavage turned out to be 0.22.

For U51C A56U U58C, the self-cleavage was 0.22.

Consider U54C G55A U80A, for which the self-cleavage worked out at 1.

For A57G A64G U74C, the self-cleavage was found to be 1.19.

For U49C U51C C62U G70A, the self-cleavage turned out to be 0.17.

As for U51C U60G U67C A77G, the self-cleavage worked out at 0.14.

Regarding U51A A56G A64G, the self-cleavage worked out at 0.61.

U54C A56U C62U A65U C71U A77U: the self-cleavage amounted to 0.06.

Turning to U49C U51C G70A, the self-cleavage was 0.16.

U51A A57G U58G: the self-cleavage is 0.1.

For U51A U72G U76C, the self-cleavage is 1.06.

In the case of C50A A57G U80C, the self-cleavage amounted to 0.97.

Turning to A56G A64G U69C A75U, the self-cleavage was 0.6.

For the variant U51G A64U U74A, the self-cleavage was 0.42.

On to U51C G63U A64U, for which the self-cleavage was 0.35.

For the variant A56G A57G U74C, the self-cleavage turned out to be 0.5.

Consider U51A U69A U76C, for which the self-cleavage stood at 0.83.

Turning to U54C U66G A77G, the self-cleavage was determined as 0.33.

Take U49C U54A G63A U78C: the self-cleavage was 0.37.

With U51A A57G U74A A77G, the self-cleavage is 0.77.

Regarding A56G C62U U74G, the self-cleavage amounted to 0.14.

On to A56U C79U U80C, for which the self-cleavage was determined as 0.72.

Turning to A56U A57C U60A U72G U76C, the self-cleavage amounted to 0.18.

As for U51A A56U A65G U72A U78G, the self-cleavage was 0.73.

G53A U74C U78C U80C: the self-cleavage came to 0.83.

For A56G U60A U78C, the self-cleavage amounted to 0.43.

Take U51A U74C A75G: the self-cleavage was determined as 1.38.

Take U54A U60C U72C: the self-cleavage was found to be 0.75.

Consider U49C U54A C62U A77G, for which the self-cleavage is 0.12.

U51C G63U U67C U72C: the self-cleavage was 0.45.

Turning to U54G A64U U76G, the self-cleavage came to 0.19.

As for U54C A56G U67C, the self-cleavage came out at 0.28.

In the case of U51A A56G A64U U66C, the self-cleavage was determined as 0.23.

Regarding G53A G63C C71A, the self-cleavage came out at 0.31.

With U51C U58G A64G, the self-cleavage turned out to be 0.19.

For the variant U51C A56G U76A, the self-cleavage was found to be 0.83.

As for U51C A56G U76C, the self-cleavage turned out to be 1.03.

For the variant U51C A56U U58A A64U, the self-cleavage stood at 0.15.

A56U U60G U66C A77G: the self-cleavage is 0.17.

As to U51C U60C A64G U69C A77G, the self-cleavage was 0.24.

For the variant U54C C62U A77G, the self-cleavage was found to be 0.56.

Take U54A A56G U66C: the self-cleavage stood at 0.12.

On to A56G A65G U67C A75G U80A, for which the self-cleavage was found to be 0.12.

In the case of U54A U74G A75U, the self-cleavage worked out at 1.21.

In the case of U54G U58C U76C, the self-cleavage came to 0.24.
